# The list shows a part of the results. The full chains were built here from the parent and the listed change. Inactive controls read about 0.05.
# B1: TEV protease; numbered along this chain (parent)
# chain: MGESLFKGPRDYNPISSSICHLTNESDGHTTSLYGIGFGPFIITNKHLFRRNNGTLVVQSLHGVFKVKDTTTLQQHLVDGRDMIIIRMPKDFPPFPQKLKFREPQREERICLVTTNFQTKSMSSMVSDTSCTFPSGDGIFWKHWIQTKDGQCGSPLVSTRDGFIVGIHSASNFTNTNNYFTSVPKNFMELLTNQEAQQWVSGWRLNADSVLWGGHKVFMVKPEEPFQPVKEATQL
# Variants of: B1
# Assay: raw area under fraction-flipped curve 0-4 h after induction (AUC4h, not background-subtracted), DNA-recorder readout of cleavage of the substrate (dimensionless); higher = more cleavage of the substrate by the protease variant
# Conditions: temperature: 34 °C; time window: 0-4 h after rhamnose induction
# 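Further: Bxb1 expression induced with 0.2% (w/v) L-rhamnose at OD600 near 0.5, cultures sampled hourly, flipped fraction per protease–substrate barcode pair counted by paired-end Illumina sequencing.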
Variant,area with substrate ENLYEQS,area with substrate ENLYGQS,area with substrate ENLYHQS,area with substrate ENLYIQS,area with substrate ENLYKQS,area with substrate ENLYMQS,area with substrate ENLYSQS,area with substrate ENLYNQS,area with substrate ENLYVQS,area with substrate ENLYYQS
MGESLFKGPRDYNPISSSICHLTNESDGHTTSLYGIGFGPFIITNKHLFRRNNGTLVVQSLHGVFKVKDTTTLQQHLVDGRDMIIIRMPKDFPPFPQKLKFREPQREERICLVTTNFQTKSMSSMVSDTSCTFPSGDGIFWKHWIQTKDGQCGSPLVSTRDGFIVGIHSASNFTNTNNYFTSVPKNFMELLTNQEAQQWVSGWRLNADYVLWGGHKVFMVKPEEPFQPVKEATQL [S209Y],0.0661,0.0501,0.0681,0.178,0.0699,0.111,0.0555,,,
MGESLFKGPRDYNPISSSICHLTNESDGHTTSLYGIGFGPFIITNKHLFRRNNGTLVVQSLHGVFKVKDTTTLQQHLVDGRDMIIIRMPKDFPPFPQKLKFREPQREERICLVTTNFQTKSMSSMVSDTSCTFPSGDGIFWKHWIQTKDGQCGSPLVSTRDGFIVGIHSASNFTNTNNYFTSVPKNFMELLTNQEAQQWVSGWRLNADSVLWGFHKVFMVKPEEPFQPVKEATQL [G214F],0.0521,0.0653,,,,0.0482,,0.0574,0.0759,0.0571
MGESLFKGPRDYNPISSSICHLTNESDGHTTSLYGIGFGPFIITNKHLFRRNNGTLVVQSLHGVFKVKDTTTLQQHLVDGRDMIIIRMPKDFPPFPQKLKFREPQREERICLVTTNFQTKSMSSMVSDTSCTFPSGDGIFWKHWIQTKDGQCGSPLVSTRDGFIVGIHSASNFTNTNNYFTSVPKNFMELLTNQEAQQWVSGWRLNADSVLWGGIKVFMVKPEEPFQPVKEATQL [H215I],0.0621,,,,,,,,,
MGESLFKGPRDYNPISSSICHLTNESDGHTTSLYGIGFGPFIITNKHLFRRNNGTLVVQSLHGVFKVKDTTTLQQHLVDGRDMIIIRMPKDFPPFPQKLKFREPQREERICLVTTNFQTKSMSSMVSDTSCTFPSGDGIFWKHWIQTKDGQCGSPLVSTRDGFIVGIHSASNFTNTNNYFTSVPKNFMELLTNQEAQQWVSGWRLNADSVLWGGHKLFMVKPEEPFQPVKEATQL [V217L],0.0444,,,,,,0.0863,,0.101,
MGESLFKGPRDYNPISSSICHLTNESDGHTTSLYGIGFGPFIITNKHLFRRNNGTLVVQSLHGVFKVKDTTTLQQHLVDGRDMIIIRMPKDFPPFPQKLKFREPQREERICLVTTNFQTKSMSSMVSDTSCTFPSGDGIFWKHWIQTKDGQCGSPLVSTRDGFIVGIHSASNFTNTNNYFTSVPKNFMELLTNQEAQQWVSGWRLNADSVLWGGHKVFMVKPEEPFQRVKEATQL [P228R],0.0735,,0.0618,,0.0664,0.0496,,0.0674,0.0836,0.071
MGESLFKGPRDYNPISSSICHLTNESDGHTTSLYGIGFGPFIITNKHLFRRNNGTLVVQSLHGVFKVKDTTTLQQHLVDGRDMIIIRMPKDFPPFPQKLKFREPQREERICLVTTNFQTKSMSSMVSDTSCTFPSGDGIFWKHWIQTKDGQCGSPLVSTRDGFIVGIHSASNFTNTNNYFTSVPKNFMELLTNQEAQQWVSGWRLNADSVLWGGHKVFMVKPEEPFQSVKEATQL [P228S],0.0643,,0.0627,,0.114,0.0822,0.13,0.0764,0.123,
MGESLFKGPRDYNPISSSICHLTNESDGHTTSLYGIGFGPFIITNKHLFRRNNGTLVVQSLHGVFKVKDTTTLQQHLVDGRDMIIIRMPKDFPPFPQKLKFREPQREERICLVTTNFQTKSMSSMVSDTSCTFPSGDGIFWKHWIQTKDGQCGSPLVSTRDGFIVGIHSASNFTNTNNYFTSVPKNFMELLTNQEAQQWVSGWRLNADSVLWGGHKVFMVKPEEPFQWVKEATQL [P228W],0.0734,0.0598,,0.123,,,0.0619,0.0679,,
MGESLFKGPRDYNPISSSICHLTNESDGHTTSLYGIGFGPFIITNKHLFRRNNGTLVVQSLHGVFKVKDTTTLQQHLVDGRDMIIIRMPKDFPPFPQKLKFREPQREERICLVTTNFQTKSMSSMVSDTSCTFPSGDGIFWKHWIQTKDGQCGSPLVSTRDGFIVGIHSASNFTNTNNYFTSVPKNFMELLTNQEAQQWVSGWRLNADSVLWGGHKVFMVKPEEPFQPVKEATQY [L235Y],0.0766,,0.0658,,0.0691,0.095,,0.0614,,
IGESLFKGPRDYNPISSSICHLTNESDGHTTSLYGIGFGPFIITNKHLFRRNNGTLVVQSLHGVFKVKDTTTLQQHLVDGRDMIIIRMPKDFPPFPQKLKFREPQREERICLVTTNFQTKSMSSMVSDTSCTFPSGDGIFWKHWIQTKDGQCGSPLVSTRDGFIVGIHSASNFTNTNNYFTSVPKNFMELLTNQEAQQWVSGWRLNADSVLWGGHKVFMVKPEEPFQPVKEATQL [M1I],,0.0605,,,0.0674,,,,0.0472,
MGESLNKGPRDYNPISSSICHLTNESDGHTTSLYGIGFGPFIITNKHLFRRNNGTLVVQSLHGVFKVKDTTTLQQHLVDGRDMIIIRMPKDFPPFPQKLKFREPQREERICLVTTNFQTKSMSSMVSDTSCTFPSGDGIFWKHWIQTKDGQCGSPLVSTRDGFIVGIHSASNFTNTNNYFTSVPKNFMELLTNQEAQQWVSGWRLNADSVLWGGHKVFMVKPEEPFQPVKEATQL [F6N],,0.0672,0.0633,,0.0419,,0.0805,0.0853,,
MGESLFKGPRDYNPISSSICHLTNESDGHTTSLYAIGFGPFIITNKHLFRRNNGTLVVQSLHGVFKVKDTTTLQQHLVDGRDMIIIRMPKDFPPFPQKLKFREPQREERICLVTTNFQTKSMSSMVSDTSCTFPSGDGIFWKHWIQTKDGQCGSPLVSTRDGFIVGIHSASNFTNTNNYFTSVPKNFMELLTNQEAQQWVSGWRLNADSVLWGGHKVFMVKPEEPFQPVKEATQL [G35A],,0.056,0.0569,,,,,,,0.0719
MGESLFKGPRDYNPISSSICHLTNESDGHTTSLYGIGFGPFIITNKHLFRRNNGTLVMQSLHGVFKVKDTTTLQQHLVDGRDMIIIRMPKDFPPFPQKLKFREPQREERICLVTTNFQTKSMSSMVSDTSCTFPSGDGIFWKHWIQTKDGQCGSPLVSTRDGFIVGIHSASNFTNTNNYFTSVPKNFMELLTNQEAQQWVSGWRLNADSVLWGGHKVFMVKPEEPFQPVKEATQL [V58M],,0.0556,,0.103,,,,0.0743,0.115,

# Same assay, conditions: temperature: 34 °C; time window: 0-4 h after rhamnose induction
Variant,area with substrate ENLYQQS,area with substrate ENLYPQS,area with substrate ENLYRQS,area with substrate ENLYTQS,area with substrate ENLYWQS,area with substrate ENLYLQS
MGESLFKGPRDYNPISSSICHLTNESDGHTTSLYGIGFGPFIITNKHLFRRNNGTLVVQSLHGVFKVKDTTTLQQHLVDGRDMIIIRMPKDFPPFPQKLKFREPQREERICLVTTNFQTKSMSSMVSDTSCTFPSGDGIFWKHWIQTKDGQCGSPLVSTRDGFIVGIHSASNFTNTNNYFTSVPKNFMELLTNQEAQQWVSGWRLNADSVLWGGHKLFMVKPEEPFQPVKEATQL [V217L],0.0666,,,,,
MGESLFKGPRDYNPISSSICHLTNESDGHTTSLYGIGFGPFIITNKHLFRRNNGTLVVQSLHGVFKVKDTTTLQQHLVDGRDMIIIRMPKDFPPFPQKLKFREPQREERICLVTTNFQTKSMSSMVSDTSCTFPSGDGIFWKHWIQTKDGQCGSPLVSTRDGFIVGIHSASNFTNTNNYFTSVPKNFMELLTNQEAQQWVSGWRLNADSVLWGGHKVFMVKPEEPFQRVKEATQL [P228R],0.0826,0.0714,0.0597,0.0755,0.0891,
MGESLFKGPRDYNPISSSICHLTNESDGHTTSLYGIGFGPFIITNKHLFRRNNGTLVVQSLHGVFKVKDTTTLQQHLVDGRDMIIIRMPKDFPPFPQKLKFREPQREERICLVTTNFQTKSMSSMVSDTSCTFPSGDGIFWKHWIQTKDGQCGSPLVSTRDGFIVGIHSASNFTNTNNYFTSVPKNFMELLTNQEAQQWVSGWRLNADSVLWGGHKVFMVKPEEPFQSVKEATQL [P228S],,,,,0.0496,0.0976
MGESLFKGPRDYNPISSSICHLTNESDGHTTSLYGIGFGPFIITNKHLFRRNNGTLVVQSLHGVFKVKDTTTLQQHLVDGRDMIIIRMPKDFPPFPQKLKFREPQREERICLVTTNFQTKSMSSMVSDTSCTFPSGDGIFWKHWIQTKDGQCGSPLVSTRDGFIVGIHSASNFTNTNNYFTSVPKNFMELLTNQEAQQWVSGWRLNADSVLWGGHKVFMVKPEEPFQWVKEATQL [P228W],0.0662,,0.0648,0.0739,,0.087
MGESLFKGPRDYNPISSSICHLTNESDGHTTSLYGIGFGPFIITNKHLFRRNNGTLVVQSLHGVFKVKDTTTLQQHLVDGRDMIIIRMPKDFPPFPQKLKFREPQREERICLVTTNFQTKSMSSMVSDTSCTFPSGDGIFWKHWIQTKDGQCGSPLVSTRDGFIVGIHSASNFTNTNNYFTSVPKNFMELLTNQEAQQWVSGWRLNADSVLWGGHKVFMVKPEEPFQPVKEATQY [L235Y],,,0.0068,0.0765,,
MGESLNKGPRDYNPISSSICHLTNESDGHTTSLYGIGFGPFIITNKHLFRRNNGTLVVQSLHGVFKVKDTTTLQQHLVDGRDMIIIRMPKDFPPFPQKLKFREPQREERICLVTTNFQTKSMSSMVSDTSCTFPSGDGIFWKHWIQTKDGQCGSPLVSTRDGFIVGIHSASNFTNTNNYFTSVPKNFMELLTNQEAQQWVSGWRLNADSVLWGGHKVFMVKPEEPFQPVKEATQL [F6N],,,0.0638,,0.0946,
MGESLFKGPRDYNPISSSICHLTNESDGHTTSLYGIGFGPFIITNKHLFRRNNGTLVMQSLHGVFKVKDTTTLQQHLVDGRDMIIIRMPKDFPPFPQKLKFREPQREERICLVTTNFQTKSMSSMVSDTSCTFPSGDGIFWKHWIQTKDGQCGSPLVSTRDGFIVGIHSASNFTNTNNYFTSVPKNFMELLTNQEAQQWVSGWRLNADSVLWGGHKVFMVKPEEPFQPVKEATQL [V58M],0.0573,,,,,

# — the supplement of paper PMC12217912
